Assay results reported in the supplement of paper PMC7125110.
± gives the standard error. Variants at the background level are over-represented here.

B1: glmS ribozyme (parent)
chain: AUAAAAGCGCCAGAACUACAGAAAUGUAGUUGACGAGGAGGAGGUUUAUCGAAUUUUCGGCGGAUGCCUCCAAA

Assays:
Conditions in all cases: with glucosamine-6-phosphate
glucosamine-6-phosphate [1] = variants of: B1; experiment: self-cleavage kobs at 40 uM GlcN6P; higher = faster cleavage; RNA array
In short: (§1)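 Barcoded ribozyme variants, transcribed in situ by E. coli RNA polymerase on sequenced MiSeq chips, were followed via a hybridised Cy3 probe at 37 °C. Glucosamine-6-phosphate ranged from 40 μM to 10 mM in HEPES/KCl/Mg(OAc)2 buffer. kobs came from decay fits to per-tile medians, and kcat and KM from weighted Michaelis–Menten fits.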

glucosamine-6-phosphate [2] = variants of: B1; experiment: self-cleavage kobs at 2500 uM GlcN6P; higher = faster cleavage; RNA array
In short: as §1

glucosamine-6-phosphate [3] = variants of: B1; experiment: self-cleavage kobs at 10000 uM GlcN6P; higher = faster cleavage; RNA array
In short: as §1

glucosamine-6-phosphate [4] = variants of: B1; experiment: self-cleavage kobs at 640 uM GlcN6P; higher = faster cleavage; RNA array
In short: as §1

glucosamine-6-phosphate [5] = variants of: B1; experiment: self-cleavage kobs at 160 uM GlcN6P; higher = faster cleavage; RNA array
In short: as §1

Row | Variant | self-cleavage kobs at 40 uM GlcN6P (glucosamine-6-phosphate [1]) [s⁻¹] | self-cleavage kobs at 2500 uM GlcN6P (glucosamine-6-phosphate [2]) [s⁻¹] | self-cleavage kobs at 10000 uM GlcN6P (glucosamine-6-phosphate [3]) [s⁻¹] | self-cleavage kobs at 640 uM GlcN6P (glucosamine-6-phosphate [4]) [s⁻¹] | self-cleavage kobs at 160 uM GlcN6P (glucosamine-6-phosphate [5]) [s⁻¹]
1 | G37U U46G C50U G60U | < 1e-05 | < 1e-05 |  |  | 
2 | G37U U54A | < 1e-05 |  |  |  | 
3 | G37U U57A C71U | < 1e-05 |  | < 1e-05 |  | 
4 | G38A G41U C67U C70G | < 1e-05 | < 1e-05 |  |  | 
5 | G38A U46C | < 1e-05 | < 1e-05 |  | < 1e-05 | < 1e-05
6 | G38A U46C A53C U54C C68A | < 1e-05 |  | < 1e-05 |  | 
7 | G38A U49G | < 1e-05 |  |  | < 1e-05 | < 1e-05
8 | G38U A48C | < 1e-05 | < 1e-05 |  |  | < 1e-05
9 | G38U G40A G66A | < 1e-05 |  | < 1e-05 |  | < 1e-05
10 | G38U G43U C71G | < 1e-05 |  | < 1e-05 |  | 
11 | G38U G44U G60A | < 1e-05 |  | < 1e-05 |  | 
12 | A39C G60A | < 1e-05 | < 1e-05 | < 1e-05 |  | < 1e-05
13 | A39C G60C C68U | < 1e-05 |  |  |  | 
14 | A39C U47C C50A | < 1e-05 |  |  |  | 
15 | A39C U49G | < 1e-05 | 4.21e-05 ± 1.9e-05 | 6.91e-05 ± 9.5e-06 |  | < 1e-05
16 | A39C U56G | 5.55e-05 ± 7.3e-06 |  |  |  | 
17 | A39G G60U | < 1e-05 |  |  |  | 
18 | A39G U54G | 0.00177 ± 0.00036 | 0.0305 ± 0.013 |  | 0.00627 ± 0.0015 | 0.00227 ± 0.00056
19 | A39G U57C | < 1e-05 | 0.00013 ± 2.3e-05 | 0.000351 ± 6.4e-05 | 5.87e-05 ± 1.5e-05 | 
20 | A39U | 0.000604 ± 1e-05 |  |  |  | 
21 | A39U A64G | 0.000447 ± 5.6e-05 | 0.0101 ± 0.0015 | 0.0327 ± 0.0047 | 0.00498 ± 0.0006 | 0.00134 ± 0.00017
22 | A39U C58G | < 1e-05 | 2.25e-05 ± 1e-05 | 5.48e-05 ± 1.2e-05 |  | 
23 | A39U G62C | < 1e-05 | < 1e-05 | < 1e-05 | < 1e-05 | < 1e-05
24 | A39U U45A | 0.000759 ± 9.8e-05 | 0.0135 ± 0.0033 | 0.0807 ± 0.02 | 0.0067 ± 0.0015 | 0.00209 ± 0.00053
